Experimental data from article PMC6426988, “Seeding selectivity and ultrasensitive detection of tau aggregate conformers of Alzheimer disease” (Acta Neuropathologica, 2018).

Biological target: the molecule itself
Experiment: co-sedimentation; products of AD RT-QuIC reactions (τ306:K19CFh 1:3, 12 µM total, 10 mM HEPES pH 7.4, 400 mM NaCl, 40 µM heparin, 10 µM ThT, 37 °C, shaking; seeded with sAD or fAD brain homogenate) collected after 20 h, centrifuged at 20,800×g, washed pellet compared with input and supernatant by SDS-PAGE and GelCode Blue stain

B1: τ306 (tau […], htau40 numbering, cysteine 322 to serine) (domain or fragment)
chain: not shown
notes: stop codon added at residue 379; numbers count on: full-length human tau isoform htau40 (longest human isoform); Cloned into pET-28a right after the N-terminal poly-histidine tag and thrombin site; also called tau306; source: E. coli BL21(DE3), purified (His-Trap FF, acetone precipitation, 8 M GdnHCl, PD-10 desalting); not shown: poly-histidine, N-terminal, kept
binding result: binds
